# Values marked as one replicate rest on one cluster of the flow cell; about a third of the high ones do not repeat.
# System: ATP
# Test: switch fluorescence ratio, 500 uM ATP over buffer (Cy3 cluster intensity, sum of 5 cycles each) (fold (ratio)); higher = stronger signal-on switching upon ATP binding; sequences stand for … in TCGTCGGCAGCGTCAGATGTGTATAAGAGACAGTTTTTTTTTTTTTTTTTTTTTTTTT…TC
# Conditions: aptamer strand: ATP DNA aptamer (quencher-CACCTGGGGGAGTATTGCGGAGGAAGG + anchor), 100 nM annealed; ATP concentration: 500 uM; one replicate
# Procedure, shortened: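 Cy3-labelled switching-strand clusters on a modified Illumina MiSeq flow-cell were annealed to 100 nM quencher-labelled ATP aptamer, imaged in selection buffer, then imaged after 15 min with 500 uM ATP at 22 °C. Five buffer/ATP cycles ran, with NaOH stripping and re-annealing between them. The fluorescence ratio is summed target-cycle over summed buffer-cycle Cy3 intensity per cluster, averaged per switch-domain sequence. Clusters outside 100-1000 RFU were excluded.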
# 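Further: ATP exposure 15 min at 22 °C before imaging.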
row,Sequence,switch fluorescence ratio
1,AGTCGTGAGA,0.973
2,AGTCTCTAAT,0.992
3,AGTCTGGGGT,0.975
4,AGTCTTCTC,1.1
5,AGTGAAGAG,0.997
6,AGTGAAGCGT,1.05
7,AGTGAATCAC,0.969
8,AGTGACGCCT,0.994
9,AGTGACGGAT,1.04
10,AGTGACTGAA,0.996
11,AGTGAGAAGC,0.985
12,AGTGAGATTC,0.975
13,AGTGAGCAA,1.62
14,AGTGAGCGGA,1.02
15,AGTGAGTTAT,1.01
16,AGTGATGAAT,0.994
17,AGTGCACAAT,0.981
18,AGTGCACTGC,1.04
19,AGTGCAGTCG,1.01
20,AGTGCTAAAA,1.01
21,AGTGCTTCAA,1.03
22,AGTGCTTTGA,1.01
23,AGTGGAAACG,0.948
24,AGTGGAACCT,1.56
25,AGTGGGCCCA,0.978
26,AGTGGGGT,1.03

row,Sequence,switch fluorescence ratio
1,AGTGGGTTGT,0.968
2,AGTGGTAAAA,1.01
3,AGTGGTAATT,1.01
4,AGTGGTGACC,0.988
5,AGTGGTGAGA,0.994
6,AGTGGTGGAC,0.984
7,AGTGGTTAGG,0.974
8,AGTGGTTGGC,0.982
9,AGTGGTTTCA,1.01
10,AGTGTAAATG,1.03
11,AGTGTCGGCG,0.995
12,AGTGTCTGTG,0.95
13,AGTGTGACC,0.988
14,AGTGTGCTGC,1.02
15,AGTGTTTCTT,1
16,AGTGTTTGTG,0.954
17,AGTTAAACTA,1.02
18,AGTTAAAGGG,1.04
19,AGTTAAGCAA,1.49
20,AGTTAATCTC,1.02
21,AGTTAATGCA,0.962
22,AGTTAGAATT,1.05
23,AGTTAGCGCA,0.952
24,AGTTAGTTTA,0.999
25,AGTTATAAAT,0.989
26,AGTTATCCTA,0.975

row,Sequence,switch fluorescence ratio
1,AGTTATGTCA,0.977
2,AGTTATTTTA,1.02
3,AGTTCAAG,0.922
4,AGTTCCGCTT,1.3
5,AGTTCGCGGG,1.02
6,AGTTCGGCCG,1.06
7,AGTTCGTAT,1.03
8,AGTTCGTCGA,0.953
9,AGTTCGTGTG,0.985
10,AGTTCTGGAC,1.03
11,AGTTGAATCC,1.04
12,AGTTGACATA,0.983
13,AGTTGAGATT,1.01
14,AGTTGCAGTA,0.934
15,AGTTGCGCAC,0.969
16,AGTTGCGTAC,1.07
17,AGTTGCTAGA,0.967
18,AGTTGGATGA,0.995
19,AGTTGGTGCG,1.04
20,AGTTGGTTT,0.995
21,AGTTGTACTT,1.03
22,AGTTGTCAGG,1.02
23,AGTTGTGA,1.02
24,AGTTGTTAAG,1.02
25,AGTTGTTAG,1.02
26,AGTTGTTCAG,1.01

row,Sequence,switch fluorescence ratio
1,AGTTGTTCTA,0.984
2,AGTTTAGTAC,1.04
3,AGTTTAGTC,0.982
4,AGTTTGACA,1
5,AGTTTGATTA,1.03
6,AGTTTGCATT,1.06
7,AGTTTGCCT,1.02
8,AGTTTTCACT,0.999
9,AGTTTTTTAC,1.07
10,ATAAAAAGT,1.01
11,ATAAAAATTC,1.01
12,ATAAAAGCGA,1
13,ATAAAAGGGC,0.984
14,ATAAACCAGC,0.991
15,ATAAACCTAT,1.04
16,ATAAACTA,1.01
17,ATAAAGGTG,1.34
18,ATAAAGTTAT,1
19,ATAAATGCC,0.971
20,ATAAATGGCG,1
21,ATAACAAAA,1.06
22,ATAACAGGGG,1.23
23,ATAACCAAGA,1.08
24,ATAACTAGCC,0.97
25,ATAACTCACG,1.3
26,ATAACTTTTA,0.991

row,Sequence,switch fluorescence ratio
1,ATAAGCCTCT,0.975
2,ATAAGCTCTT,0.979
3,ATAAGGGAGC,0.949
4,ATAAGGGATA,1.02
5,ATAAGTACGT,1.29
6,ATAATAAGAG,0.967
7,ATAATAAGCA,0.989
8,ATAATCTACG,1.05
9,ATAATTAGT,0.994
10,ATAATTCAGA,0.987
11,ATAATTCGGA,0.976
12,ATACAAAGAG,1.04
13,ATACAGGATT,1.03
14,ATACATTTAA,1
15,ATACCCACAG,1.42
16,ATACCGCTCG,1.01
17,ATACCTGCCG,1.03
18,ATACGATAA,1.14
19,ATACGATAGG,1.05
20,ATACGCATGG,1.6
21,ATACGCCACG,1.49
22,ATACGTTGGC,1.11
23,ATACTAGCAT,1.06
24,ATACTCACAT,1.3
25,ATACTCTAGC,1.08
26,ATACTGATTG,1.04

row,Sequence,switch fluorescence ratio
1,ATACTGC,1.03
2,ATACTGGATC,1.05
3,ATACTGGGCG,1.06
4,ATACTGGGTG,1.18
5,ATACTGTTGG,1.01
6,ATACTTAGGA,0.973
7,ATACTTATAC,1.13
8,ATACTTGTAC,1.17
9,ATAGAAAAC,0.973
10,ATAGAAATGG,0.99
11,ATAGAAGGAC,0.993
12,ATAGAAGGTA,0.978
13,ATAGACAATA,1.08
14,ATAGACGCAC,1.78
15,ATAGACGTC,1.02
16,ATAGAGCATT,1.03
17,ATAGAGCGGA,1.01
18,ATAGAGGCGG,1
19,ATAGAGGGAA,0.978
20,ATAGAGGGTT,0.982
21,ATAGATATAC,1.05
22,ATAGATTTGG,0.997
23,ATAGCACCA,1.03
24,ATAGCACCGT,1.04
25,ATAGCAGGAT,1.05
26,ATAGCGACAC,2.13

row,Sequence,switch fluorescence ratio
1,ATAGCGCAGG,1.04
2,ATAGCGTTA,1.03
3,ATAGCGTTGA,1.05
4,ATAGCTCATT,1.05
5,ATAGCTGTAG,1.03
6,ATAGGATAGG,0.97
7,ATAGGGCCC,1.02
8,ATAGGGTTCT,1.01
9,ATAGGTCTGA,1.03
10,ATAGGTGCGC,0.991
11,ATAGGTTGAA,1.01
12,ATAGTAAACC,0.992
13,ATAGTAATC,1.07
14,ATAGTAGCGC,0.953
15,ATAGTAGTTT,0.954
16,ATAGTATTGC,0.993
17,ATAGTCACAA,1.01
18,ATAGTCAGT,1.01
19,ATAGTGGCAG,1.01
20,ATAGTGTCAA,0.981
21,ATAGTTAC,1
22,ATAGTTGTA,0.978
23,ATATACTACC,1.27
24,ATATAGATTT,0.988
25,ATATATAACA,1.01
26,ATATATCTGT,1.02

row,Sequence,switch fluorescence ratio
1,ATATATGCGT,0.973
2,ATATCACACA,1.08
3,ATATCAGAGG,0.959
4,ATATCCATTT,0.965
5,ATATCCGATG,1
6,ATATCGAGGA,0.964
7,ATATCGGGCA,0.971
8,ATATCGGTAC,1.07
9,ATATCGTCC,0.965
10,ATATCGTTTT,0.971
11,ATATGCAGG,1.04
12,ATATGCCAAT,1.03
13,ATATGGATGC,0.971
14,ATATGGGGGT,0.997
15,ATATGGTCGG,0.982
16,ATATGGTCTT,1.02
17,ATATGGTGAA,1.02
18,ATATGTCTTC,1.03
19,ATATGTTGCT,0.975

# From the supplement of paper PMC10126150
